{"source": "PubChem BioAssay (NCATS)", "note": "The inconclusive results got no clear call from the source; some entries with a clear call stand among them for comparison. Potencies of inconclusive entries are left out as doubtful fits. The source made the active and inactive calls. Calls follow the shape of the dose curve; as a rule, active = well fitted inhibition curve with a large enough effect; inconclusive = small, poorly fitted or top-dose-only effect; inactive = no such curve, though single readings can be large or run the other way. Potency is read from the fitted curve at half-maximal effect; tags tell the direction and shape of the fitted curve.", "data": [{"experiment": "BET inhibitor-based combinations targeting novel dependencies in MECOM-rearranged (r) AML: MV-4-11 cell line (AID 2202233); also: nearly all actives have a fitted effect of over 45% in size", "conditions": "MV-4-11 AML viability, CellTiter-Glo luminescence, 48 h; series mostly up to 46 µM", "in_short": "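First, 500 cells per well were seeded; next, drugs were pinned as 11-point doses; then plates sat 48 hr in the incubator; finally CellTiter-Glo was added and luminescence read, with AUC and Z-AUC computed.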", "values": [{"smiles": "CCc1cc(Nc2nccc(-c3c(-c4ccc(OC)c(C(=O)Nc5c(F)cccc5F)c4)nc4ccccn34)n2)c(OC)cc1N1CCC(N2CCN(S(C)(=O)=O)CC2)CC1", "Potency": "inconclusive [inhibitor, partial curve, poor fit]"}, {"smiles": "COc1cccc2c1C(=O)c1c(O)c3c(c(O)c1C2=O)C[C@@](O)(C(=O)CO)C[C@@H]3O[C@H]1C[C@H](N)[C@@H](O)[C@H](C)O1", "Potency": "active: 0.0372 µM"}, {"smiles": "O=C1CC(c2c[nH]c3ccc(F)cc23)C(=O)N1", "note": "(stereo not given)", "Potency": "inconclusive [inhibitor, full curve, poor fit]"}, {"smiles": "CCCCC[C@H](O)/C=C/[C@H]1[C@H](O)CC(=O)[C@@H]1CCCCCCC(=O)O", "Potency": "inconclusive [inhibitor, full curve]"}, {"smiles": "CNC(=O)[C@H](Cc1c[nH]c2ccccc12)NC(=O)[C@@H](CC(=O)NO)CC(C)C", "Potency": "inconclusive [inhibitor, partial curve, poor fit]"}, {"smiles": "CCOC(=O)[C@H](CCc1ccccc1)N[C@@H](C)C(=O)N1CCC[C@H]1C(=O)O", "Potency": "inactive"}, {"smiles": "COC(=O)[C@H](c1ccccc1Cl)N1CCc2sccc2C1", "Potency": "inconclusive [inhibitor, partial curve, poor fit]"}, {"smiles": "CCC(C)CNCC(=O)N1CCc2sccc2C1c1cccc(C)n1", "note": "(stereo not given)", "Potency": "inactive"}, {"smiles": "COc1cc(NC(=O)c2ccc(-c3ccc(Cl)cc3)o2)cc(OC)c1", "Potency": "inactive"}, {"smiles": "CCCCC(=O)OCC(=O)[C@]1(O)Cc2c(O)c3c(c(O)c2[C@@H](O[C@H]2C[C@H](NC(=O)C(F)(F)F)[C@H](O)[C@H](C)O2)C1)C(=O)c1c(OC)cccc1C3=O", "Potency": "active: 0.235 µM"}]}]}
